# Read counts are not given, so values of variants with three or more changes are uncertain.
# B1: LINE1-mini (parent)
# chain: GGCAGAGCUCAACACAGCGUGGCAAAGUGGCUGUGGCUAGACUGCC
# Variants of: B1
# Test: self-cleavage, relative activity (ratio to wild type); higher = more cleavage; in vitro, sequencing; the parent is a self-cleaving ribozyme
row,Variant,self-cleavage
1,C8U G22C C31U C45U,0.07
2,C8U G22C G27A G29A G36A C45U,0.17
3,C8U G22C G30U G40A,0.2
4,C8U G22C G33U,0.06
5,C8U G22C G40A,0.3
6,C8U G22C G40C,0.26
7,C8U G22U A24U C31U G35U,0.16
8,C8U G22U A26G C42U,0.29
9,C8U G22U C31G C45G,0.14
10,C8U G22U C45U,0.12
11,C8U G22U C46A,0.31
12,C8U G22U G30C G36A U43G,0.14
13,C8U G22U G33U U38A,0.01
14,C8U G27A A41G C42G G44C,0.1
15,C8U G27A G40U G44U C45A,0.17
16,C8U G27A U28G G40U,0.17
17,C8U G27U G29C,0.19
18,C8U G27U G36U,0.01
19,C8U G29A C31U G36U G40A U43C C46U,0.02
20,C8U G29A U38C U43A,0.05
21,C8U G29U A39U C46G,0.06
22,C8U G29U G30A G40U,0.25
23,C8U G30A G35C G36C C37U,0.17
24,C8U G30C C37U,1.88

row,Variant,self-cleavage
1,C8U G30U A39C,0.19
2,C8U G33A G35U,0.15
3,C8U G33C A39U C42G,0.03
4,C8U G33U G35U,0.12
5,C8U G35A G36U C45A,0.16
6,C8U G35A U38C,0.05
7,C8U G35C U38G,0.23
8,C8U G35U U38A,0.06
9,C8U G36A C42G G44C,0.21
10,C8U G36C G40C,0.25
11,C8U U9A A12G C15U G21C G44A,0.19
12,C8U U9A C10G U34A G40U G44U,0.02
13,C8U U9A C10U,0.05
14,C8U U9A C15U C18U G29C,0.03
15,C8U U9A C23U C31G G40C,0.07
16,C8U U9A G17U,0.05
17,C8U U9A G19A G30C G44C,0.03
18,C8U U9A G21A U34C A41C U43C,0.24
19,C8U U9A G22C G30C C45A,0.4
20,C8U U9A G36A G40C,0.05
21,C8U U9A U28C,0.05
22,C8U U9A U34A,0.61
23,C8U U9C A25G G27A,0.03
24,C8U U9C C13A G22U A39G C45A C46U,0.02

row,Variant,self-cleavage
1,C8U U9C G17U G27A U28A U32C,0.06
2,C8U U9C G21A G36A C46A,0
3,C8U U9C G22A,0.08
4,C8U U9C G33U,0.01
5,C8U U9G A12C C18U U20G G27U G30U,0.01
6,C8U U9G A12U C15A C23U A25G,0.05
7,C8U U9G A16U G33A U38A,0.07
8,C8U U9G C10A A24C,0.03
9,C8U U9G C13A,0.13
10,C8U U9G G22U,0.02
11,C8U U9G U20G,0
12,C8U U9G U28G G40U,0.03
13,C8U U9G U34A,0.06
14,C8U U20A G35U A41G G44A,0.07
15,C8U U20A G40A,0.12
16,C8U U20C G21U G22A U28C C45U,0
17,C8U U20C G22C C23U G35C,0.31
18,C8U U20C G29U,0.25
19,C8U U20C G35C,0.05
20,C8U U20C U34A C42G,0.07
21,C8U U20G A24G C31G,0.03
22,C8U U20G A25C C46A,0.17
23,C8U U20G A25G G36U,0.02
24,C8U U20G G21U,0.08

row,Variant,self-cleavage
1,C8U U20G G29A A39G,0.02
2,C8U U20G G35C,0.01
3,C8U U20G G36C U43A,0.02
4,C8U U20G U43A,0.09
5,C8U U28A G33A,0.17
6,C8U U28A G35U A39U,0.09
7,C8U U28A U38G,0.02
8,C8U U28C G29A U43C,0.05
9,C8U U28C G30C C42G,0.1
10,C8U U28C G35U,0.14
11,C8U U28G U32A,0.03
12,C8U U32G A39G C42U,0.05
13,C8U U34A A39G G44C C46A,0.01
14,C8U U34G A39C C42G,0.02
15,C8U U38A C45A,0.07
16,U9A A11C A12U,0.04
17,U9A A11C C15A G29U G30A,0.01
18,U9A A11C C15U G29A G36A C42G,0
19,U9A A11C G17U,0.03
20,U9A A11C G30A C37A G44C C46G,0
21,U9A A11C U34C A41C,0.02
22,U9A A11G A12C U28A U38G,0.02
23,U9A A11G C13G U34A,0
24,U9A A11G C15U U32G A41G,0

row,Variant,self-cleavage
1,U9A A11G C18A A25G G33A G36A C37G,0
2,U9A A11G C23U,0.02
3,U9A A11G C45G,0.04
4,U9A A11U A14C G17C U38A,0.01
5,U9A A11U C13A G27U,0.04
6,U9A A11U G19A G30C G36U C45A,0.01
7,U9A A11U G21C,0.01
8,U9A A11U G44U,0.06
9,U9A A11U U32G,0.03
10,U9A A12C A16C,0.03
11,U9A A12C C18A U20G G29U C46G,0.05
12,U9A A12C U32C,0.05
13,U9A A12G A16G U28G,0.18
14,U9A A12U A16C,0.11
15,U9A A12U C13A,0.4
16,U9A A12U C15U U34A,0.02
17,U9A A12U G22A G44A,0.05
18,U9A A12U G36U,0.02
19,U9A A14C A16G C23U A25U,0.03
20,U9A A14C A26C G40U G44C,0.01
21,U9A A14C C23U A26U C45A,0.09
22,U9A A14C G17C G29U G33U,0.07
23,U9A A14C U32C G40A,0.06
24,U9A A14G C15U,0.29

row,Variant,self-cleavage
1,U9A A14G C46G,0.1
2,U9A A14G G21U,0.09
3,U9A A14U C31U G35U G36U,0.03
4,U9A A14U G21A G33A C42G,0.02
5,U9A A14U G22A U32C C42A,0.03
6,U9A A14U U38A C42A,0.19
7,U9A A16C G35C C45U,0.02
8,U9A A16C U20C,0.09
9,U9A A16G A39C,0.07
10,U9A A16G G17A G22A U32G G40A G44U,0.02
11,U9A A16G G27U,0.04
12,U9A A16G G29C G40U,0.04
13,U9A A16G G30U A39G,0.01
14,U9A A16G G40A,0.03
15,U9A A16U C18A G30A U32C,0.09
16,U9A A16U G17U U28A C42A,0.04
17,U9A A16U G19A G29U G30C G36A,0.07
18,U9A A16U U32G U43C,0.04
19,U9A A24C C42A,0.04
20,U9A A24U A26G G36C C42G G44U,0.05
21,U9A A24U C42G U43G,0.3
22,U9A A25C C31U,0.02
23,U9A A25C G29A G35C C37A C45G,0.19
24,U9A A25C G40U,0.04

row,Variant,self-cleavage
1,U9A A25G C37G A41U C42A,0
2,U9A A25U U43A,0.48
3,U9A A26C C31U G40U A41C,0
4,U9A A26G C46A,0.18
5,U9A A26G U28A,0.86
6,U9A A26G U28A G30C C31U,0.15
7,U9A A26G U38A,0.08
8,U9A A26U G27U,0.23
9,U9A A26U U32A,0.08
10,U9A A39C C46A,0.08
11,U9A A39U G40U C45A,0.08
12,U9A C10A A39C C45U,0.01
13,U9A C10A C13G C23U C45G,0.04
14,U9A C10A G17A G29C G36U,0.02
15,U9A C10A G21U G36C,0.04
16,U9A C10A G22A G30C G35C,0.02
17,U9A C10A G22A U34A U43C G44U,0.01
18,U9A C10A G22U C31G U38A U43C,0.01
19,U9A C10A G22U G29A G35C G36A G44A,0.03
20,U9A C10A G40U,0.04
21,U9A C10A U20C U32G A41U,0.03
22,U9A C10G A11U A39U C45G,0.04
23,U9A C10G C15U A16U G17A U38G,0.01
